PubChem BioAssay AID624171 (National Center for Advancing Translational Sciences (NCATS), 2012)
Screen size: about 410,000 compounds; about 1,200 (0.29%) were called active. Inconclusive results, whose numbers are uncertain, are shown with a selection of clear calls. The call rests on the fitted dose curve; in most records, active means well fitted activation curve with a large enough effect; inconclusive means small, poorly fitted or top-dose-only effect; inactive means flat fitted curve, though single readings scatter. Potencies beside an inconclusive call are fits to weak or partial responses and may not hold up.

Assay: qHTS of Nrf2 Activators; further: nearly all actives have a fitted effect of over 65% in size; on activation: % of control where 0% means no effect
Details: AREc32 ARE-luciferase reporter (MCF7-derived line), luminescence, 24 h; activation: at 46.1 µM (top of the series)
How it was run: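 Nrf2 activation is followed as ARE-luciferase induction in the AREc32 line after one day of compound treatment; luminescence is read with Steady-Glo.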
Potency means the concentration at half of the fitted maximal effect; tags describe the fitted curve by direction and shape.

SMILES | activation | Potency
CC(=O)Nc1nc2n(n1)C(c1ccc(Cl)cc1)C=C(C)N2 (centres undefined) | inactive: -1.21% | –
COc1ccc(/C=C2\SC(N3CCc4ccccc4C3)=NC2=O)cc1OC | – | inconclusive: 15.8 µM [activator, single point]
COc1ccc(C)cc1NC(=O)C(Sc1nnnn1C)c1ccccc1 (centres undefined) | inactive: 0.787% | –
CC(C)(CNC(=O)C1CCN(S(=O)(=O)c2cc([N+](=O)[O-])ccc2Cl)CC1)N1CCOCC1 | – | inconclusive: 17.8 µM [activator, single point]
CCOC(=O)c1[nH]nc(C(=O)c2ccc(Br)cc2)c1O | – | inconclusive: 20 µM [activator, single point]
CN(C)CCN(C(=O)/C=C/c1cccs1)c1nc2ccc(F)cc2s1 | – | inconclusive: 1.78 µM [activator, full curve, poor fit]
Cc1onc(-c2c(F)cccc2Cl)c1C(=O)OCC(=O)Nc1cccc(S(=O)(=O)N(C)C)c1 | inactive: 2.93% | –
NNc1nc2c(Cl)ccc(Cl)c2s1 | – | inconclusive: 10 µM [activator, partial curve]
CCC(=O)Nc1cc(-c2nc3cc(C)cc(C)c3o2)ccc1C | – | inconclusive: 3.16 µM [activator, partial curve, poor fit]
CCOC(=O)c1cc(-c2cccc([N+](=O)[O-])c2)n[nH]1 | – | inconclusive: 25.1 µM [activator, single point]
O=C1COc2ccc(C(=O)/C=C/c3ccccc3)cc2N1 | – | inconclusive: 15.8 µM [activator, single point]
CSC1CCCCC1(O)CSc1nc2c(cc1C#N)CCCC2 (centres undefined) | inactive: -1.14% | –
Cc1cccc2sc(N(Cc3cccnc3)C(=O)CCS(=O)(=O)c3ccccc3)nc12 | – | active: 22.4 µM
Cc1ccc(C(=O)/C=C/c2ccc3ncccc3c2)cc1 | – | inconclusive: 22.4 µM [activator, single point]
c1ccc2c(c1)ncc1cccn12 | inactive: 0.319% | –
CC(C)SC1=NC(C)(C)C=C(/C=C/c2c(Cl)cccc2Cl)N1 | – | inconclusive: 22.4 µM [activator, single point]
CC(Oc1ccc(Br)cc1)C(=O)Nc1nc(-c2ccccn2)cs1 (centres undefined) | – | inconclusive: 35.5 µM [activator, single point]
O=C(Nc1cccc(Cl)c1)C(Cc1ccccc1)n1cccc1 (centres undefined) | inactive: -1.39% | –
CC(C)SC1=NC(C)(C)C=C(/C=C/c2ccc(Cl)cc2Cl)N1 | – | inconclusive: 22.4 µM [activator, single point]
c1ccc(N=NC2=NN(c3ccccc3)CS2)cc1 | – | active: 8.91 µM
COc1ccc(Cc2c(-c3ccco3)nc3ccc(Cl)cn23)c(C)c1 | – | inconclusive: 15.8 µM [activator, single point]
O=C(CCNc1cccc(F)c1)c1cccc([N+](=O)[O-])c1 | – | inconclusive: 25.1 µM [activator, single point]

SMILES | activation | Potency
O=c1cc(-c2cccc(Br)c2)oc2cccc(O)c12 | – | active: 2 µM
CCOc1cc2c(c3c1C(c1ccccc1)N(S(=O)(=O)c1ccc(C)cc1)C3)C(=O)C=CC2=O (centres undefined) | – | inconclusive: 3.16 µM [activator, full curve, poor fit]
CN(C)S(=O)(=O)c1ccc(Cl)c(NC(=O)COC(=O)/C=C/c2ccco2)c1 | – | inconclusive: 20 µM [activator, single point]
COc1cccc(-c2nc(-c3cccs3)no2)c1 | – | inconclusive: 7.08 µM [activator, partial curve, poor fit]
CN(C)S(=O)(=O)c1cccc(NC(=O)/C=C/c2ccccc2[N+](=O)[O-])c1 | – | inconclusive: 12.6 µM [activator, partial curve, poor fit]
CC(=O)N1CCc2c(sc(NC(=O)C3CC3)c2-c2nc3ccccc3s2)C1 | – | inconclusive: 20 µM [activator, partial curve, poor fit]
CC(=O)c1cccc(NC(=O)c2ccc([N+](=O)[O-])o2)c1 | – | inconclusive: 5.01 µM [activator, single point]
CC(=O)COC(=O)C1CCN(S(=O)(=O)c2cc([N+](=O)[O-])ccc2Cl)CC1 | – | active: 14.1 µM
COc1ccc(-c2[nH]ncc2/C=C(/C#N)C(=O)NC2CCCCC2)cc1 | inactive: -0.455% | –
Cc1c(Cl)cccc1NC(=O)c1cc(-c2cccs2)on1 | – | inconclusive: 3.98 µM [activator, full curve]
Cn1c2ccccc2c(=O)c2cc(C#CC3=CCCCC3)ccc21 | – | inconclusive: 15.8 µM [activator, single point]
N/C(=N\N=C\c1ccc(Br)o1)c1nonc1N | – | inconclusive: 14.1 µM [activator, single point]
O=C(CN(c1cccc(C(F)(F)F)c1)S(=O)(=O)c1ccc(Cl)c([N+](=O)[O-])c1)NCc1ccc(F)cc1 | – | inconclusive: 35.5 µM [activator, single point]
COc1ccc(C(=O)c2c3ccc([N+](=O)[O-])cc3[n+]([O-])n2CCCC(N)=O)cc1 | – | inconclusive: 12.6 µM [activator, single point]
O=C(O)/C=C/C(=O)Nc1ccc(Cl)cc1C(=O)c1ccccc1 | – | inconclusive: 25.1 µM [activator, single point]
CCc1nn2c(-c3ccco3)ccnc2c1-c1ccccc1 | – | inconclusive: 1.58 µM [activator, full curve, poor fit]
O=C1C=C(Nc2cccc(O)c2)CC(c2ccco2)C1 (centres undefined) | – | inconclusive: 15.8 µM [activator, single point]
CCn1c(Sc2ccc([N+](=O)[O-])cn2)nnc1-c1ccco1 | – | inconclusive: 17.8 µM [activator, partial curve, poor fit]
Cc1ccccc1/C=C\c1nc2ccccc2c(=O)n1Cc1ccccc1 | inactive: 12.6% | –
O=C(N/N=C/C(Br)=C/c1ccccc1)c1n[nH]c2c1CCC2 | – | active: 22.4 µM
COC(=O)c1ccc(NC(=O)N2CCC(CN3CCc4ccccc4C3)CC2)cc1 | inactive: 8.1% | –
COC(=O)c1ccc2nc(NC(=O)CCS(=O)(=O)c3ccccc3)sc2c1 | – | inconclusive: 3.55 µM [activator, partial curve, poor fit]
